Article PMC9980373 (Journal for Immunotherapy of Cancer, 2023)

How the values were obtained:
[1] = target: T1, human IL-2 receptor α subunit (human, UniProt P01589 22-240); assay: ELISA
T1 sequence: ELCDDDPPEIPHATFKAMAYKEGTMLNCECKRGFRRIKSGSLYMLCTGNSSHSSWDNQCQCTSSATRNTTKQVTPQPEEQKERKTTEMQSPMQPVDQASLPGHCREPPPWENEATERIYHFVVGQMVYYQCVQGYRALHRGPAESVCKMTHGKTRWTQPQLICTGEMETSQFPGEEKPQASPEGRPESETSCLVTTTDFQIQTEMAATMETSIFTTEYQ

[2] = target: T2, human IL-2 receptor β subunit (human, UniProt P14784 27-240); assay: ELISA
T2 sequence: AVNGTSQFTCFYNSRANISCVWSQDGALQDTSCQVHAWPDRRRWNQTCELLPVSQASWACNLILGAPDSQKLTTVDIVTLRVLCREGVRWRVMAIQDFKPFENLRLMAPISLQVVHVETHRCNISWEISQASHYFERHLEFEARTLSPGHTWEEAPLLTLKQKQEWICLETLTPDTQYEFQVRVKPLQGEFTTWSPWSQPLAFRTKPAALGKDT

EC50 [1]: 13.5 nM
EC50 [2]: 1140 nM
B1: human wild-type IL-2 with LPETG-tag and histidine tag (ligand)
chain: not shown
